Reference: the supplement of paper PMC4967469
Lines with a small IC50 respond at low doses; a fit beyond the top or the lowest dose is shown as a bound at that dose. AUC sums up the same curve from the lowest dose to the 256-fold higher top dose; the more sensitive the line, the further below 1. For some of these results: An inferred top dose was calculated from the reported fits. For some of these results: An entry number marks a drug with two screens in the source, which often give different values.

Tests used:
Experiment in all cases: Viability of human cancer cell lines after 72 h of drug (GDSC screen)
Cytarabine = compound: Nc1ccn([C@@H]2O[C@H](CO)[C@@H](O)[C@@H]2O)c(=O)n1 [Cytarabine]; conditions: top dose 2 µM
Protocol: (§1)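 Human cancer cell lines in 384-well plates, medium with 10% serum, drug for 72 h over a 256-fold dose range (nine 2-fold or five 4-fold steps up to the top dose). Adherent lines were fixed and stained with the nucleic acid dye Syto60, suspension lines read with resazurin; signal relative to control wells, capped at 0 and 100%. One two-parameter sigmoid per drug and line, fitted in a mixed model over all curves with the slope shared within a line.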

Zibotentan = compound: COc1nc(C)cnc1NS(=O)(=O)c1cccnc1-c1ccc(-c2nnco2)cc1 [Zibotentan]; conditions: top dose 20 µM; top dose inferred
Protocol: as §1

GSK269962A = compound: CCn1c(-c2nonc2N)nc2cnc(Oc3cccc(NC(=O)c4ccc(OCCN5CCOCC5)cc4)c3)cc21 [GSK269962A]; conditions: top dose inferred
Protocol: as §1

KU-55933 = compound: O=c1cc(-c2cccc3c2Sc2ccccc2S3)oc(N2CCOCC2)c1 [KU-55933]; conditions: top dose 10 µM
Protocol: as §1

Thapsigargin = compound: C/C=C(/C)C(=O)O[C@H]1C(C)=C2[C@H]([C@@H]1OC(=O)CCCCCCC)[C@@](C)(OC(C)=O)C[C@H](OC(=O)CCC)[C@@]1(O)[C@H]2OC(=O)[C@@]1(C)O [Thapsigargin]; conditions: top dose 0.512 µM; top dose inferred
Protocol: as §1

CHIR-99021 = compound: Cc1cnc(-c2cnc(NCCNc3ccc(C#N)cn3)nc2-c2ccc(Cl)cc2Cl)[nH]1 [CHIR-99021]
Protocol: as §1

ABT-888 = compound: C[C@]1(c2nc3c(C(N)=O)cccc3[nH]2)CCCN1 [ABT-888]; conditions: top dose 5 µM; top dose inferred
Protocol: as §1

QL-X-138 = compound: C=CC(=O)Nc1cc(-n2c(=O)ccc3cnc4ccc(-c5cn[nH]c5)cc4c32)ccc1C [QL-X-138]; conditions: top dose 10.24 µM; top dose inferred
Protocol: as §1

ABT-869 = compound: Cc1ccc(F)c(NC(=O)Nc2ccc(-c3cccc4[nH]nc(N)c34)cc2)c1 [ABT-869]; conditions: top dose 1.024 µM; top dose inferred
Protocol: as §1

CP466722 = compound: COc1cc2ncnc(-n3nc(-c4ccccn4)nc3N)c2cc1OC [CP466722]; conditions: top dose 16 µM; top dose inferred
Protocol: as §1

(5Z)-7-Oxozeaenol = compound: COc1cc(O)c2c(c1)/C=C/C[C@H](O)[C@H](O)C(=O)/C=C\C[C@H](C)OC2=O [(5Z)-7-Oxozeaenol]; conditions: top dose 10 µM; top dose inferred
Protocol: as §1

MPS-1-IN-1 = compound: COc1cc(N2CCC(O)CC2)ccc1Nc1cc(Nc2ccccc2S(=O)(=O)C(C)C)c2cc[nH]c2n1 [MPS-1-IN-1]; conditions: top dose 20 µM; top dose inferred
Protocol: as §1

CMK = compound: Cc1ccc(-c2c(C(=O)CCl)n(CCCO)c3ncnc(N)c23)cc1 [CMK]; conditions: top dose 4 µM; top dose inferred
Protocol: as §1

[1] = top dose 2.5 µM, screen: GDSC drug entry 127
[2] = top dose 5 µM, screen: GDSC drug entry 1192
[3] = top dose 2.56 µM, screen: GDSC drug entry 154
[4] = top dose 10 µM, screen: GDSC drug entry 1241, top dose inferred

| Cell Line | AUC (Cytarabine) | IC50 (Cytarabine) | AUC (Zibotentan) | IC50 (Zibotentan) | AUC (GSK269962A; [1]) | IC50 (GSK269962A; [1]) | AUC (GSK269962A; [2]) | IC50 (GSK269962A; [2]) | AUC (KU-55933) | IC50 (KU-55933) | AUC (Thapsigargin) | IC50 (Thapsigargin) | AUC (CHIR-99021; [3]) | IC50 (CHIR-99021; [3]) | AUC (CHIR-99021; [4]) | IC50 (CHIR-99021; [4]) | AUC (ABT-888) | IC50 (ABT-888) | AUC (QL-X-138) | IC50 (QL-X-138) | AUC (ABT-869) | IC50 (ABT-869) | AUC (CP466722) | IC50 (CP466722) | AUC ((5Z)-7-Oxozeaenol) | IC50 ((5Z)-7-Oxozeaenol) | AUC (MPS-1-IN-1) | IC50 (MPS-1-IN-1) | AUC (CMK) | IC50 (CMK) |
| --- | --- | --- | --- | --- | --- | --- | --- | --- | --- | --- | --- | --- | --- | --- | --- | --- | --- | --- | --- | --- | --- | --- | --- | --- | --- | --- | --- | --- | --- | --- |
| CESS (acute myeloid leukaemia, suspension) | 0.96 | > 2 µM | 0.983 | > 20 µM | 0.962 | > 2.5 µM | 0.931 | > 5 µM | 0.97 | > 10 µM | 0.503 | 0.0326 µM | 0.975 | > 2.56 µM | 0.98 | > 10 µM | 0.991 | > 5 µM | 0.255 | 0.144 µM | 0.991 | > 1.02 µM | 0.627 | 2.11 µM | 0.694 | 2 µM | 0.862 | 13.2 µM | 0.825 | 1.96 µM |
| CGTH-W-1 (thyroid, adherent) | 0.346 | 0.047 µM | 0.984 | > 20 µM | 0.983 | > 2.5 µM | 0.969 | > 5 µM | 0.944 | > 10 µM | 0.127 | 0.00209 µM | 0.918 | > 2.56 µM | 0.818 | 5.57 µM | 0.967 | > 5 µM | 0.886 | > 10.2 µM | 0.846 | 0.743 µM | 0.881 | > 16 µM | 0.296 | 0.167 µM | 0.979 | > 20 µM | 0.98 | > 4 µM |
| CL-11 (large intestine, adherent) | 0.893 | > 2 µM | 0.986 | > 20 µM | 0.974 | > 2.5 µM | 0.978 | > 5 µM | 0.923 | > 10 µM | 0.973 | > 0.512 µM | 0.987 | > 2.56 µM | 0.978 | > 10 µM | 0.983 | > 5 µM | 0.972 | > 10.2 µM | 0.987 | > 1.02 µM | 0.931 | > 16 µM | 0.322 | 0.186 µM | 0.928 | > 20 µM | 0.986 | > 4 µM |
| COLO-320-HSR (large intestine, suspension) | 0.645 | 0.296 µM | 0.99 | > 20 µM | 0.99 | > 2.5 µM | 0.982 | > 5 µM | 0.976 | > 10 µM | 0.544 | 0.0415 µM | 0.988 | > 2.56 µM | 0.991 | > 10 µM | 0.99 | > 5 µM | 0.967 | > 10.2 µM | 0.99 | > 1.02 µM | 0.786 | 5.96 µM | 0.798 | 4.05 µM | 0.688 | 3.87 µM | 0.829 | 2.05 µM |
| COLO-668 (small cell lung carcinoma, adherent) | 0.774 | 0.783 µM | 0.972 | > 20 µM | 0.973 | > 2.5 µM | 0.957 | > 5 µM | 0.961 | > 10 µM | 0.451 | 0.0236 µM | 0.986 | > 2.56 µM | 0.986 | > 10 µM | 0.916 | > 5 µM | 0.816 | 5.69 µM | 0.98 | > 1.02 µM | 0.901 | > 16 µM | 0.9 | > 10 µM | 0.821 | 11.6 µM | 0.989 | > 4 µM |
| COLO-684 (endometrium, suspension) | 0.919 | > 2 µM | 0.969 | > 20 µM | 0.985 | > 2.5 µM | 0.908 | > 5 µM | 0.959 | > 10 µM | 0.73 | 0.159 µM | 0.984 | > 2.56 µM | 0.983 | > 10 µM | 0.979 | > 5 µM | 0.456 | 0.48 µM | 0.963 | > 1.02 µM | 0.744 | 5.51 µM | 0.744 | 3.45 µM | 0.895 | > 20 µM | 0.938 | > 4 µM |
| COLO-800 (melanoma, adherent) | 0.705 | 0.462 µM | 0.987 | > 20 µM | 0.976 | > 2.5 µM | 0.824 | 2.86 µM | 0.98 | > 10 µM | 0.168 | 0.00327 µM |  |  | 0.986 | > 10 µM | 0.963 | > 5 µM | 0.665 | 1.81 µM | 0.98 | > 1.02 µM | 0.781 | 6.43 µM | 0.724 | 2.65 µM | 0.906 | > 20 µM | 0.986 | > 4 µM |
| COLO-824 (breast, adherent) | 0.966 | > 2 µM | 0.987 | > 20 µM | 0.965 | > 2.5 µM | 0.944 | > 5 µM | 0.982 | > 10 µM | 0.634 | 0.0759 µM | 0.965 | > 2.56 µM | 0.961 | > 10 µM | 0.988 | > 5 µM | 0.817 | 5.88 µM | 0.981 | > 1.02 µM | 0.898 | > 16 µM | 0.856 | 8.33 µM | 0.942 | > 20 µM | 0.968 | > 4 µM |
| COR-L88 (small cell lung carcinoma, adherent) | 0.956 | > 2 µM | 0.981 | > 20 µM | 0.895 | > 2.5 µM | 0.926 | > 5 µM | 0.981 | > 10 µM | 0.727 | 0.163 µM | 0.986 | > 2.56 µM | 0.985 | > 10 µM | 0.983 | > 5 µM | 0.759 | 4.21 µM | 0.978 | > 1.02 µM | 0.949 | > 16 µM | 0.966 | > 10 µM | 0.949 | > 20 µM | 0.883 | > 4 µM |
